# In PubChem BioAssay AID1508624 (National Center for Advancing Translational Sciences (NCATS), 2021):
# Hit rate of the full screen: of about 48,000 compounds, about 120 (0.25%) were called active. Roughly 4% stayed inconclusive and do not appear here. Calls come from the whole dose curve; as a rule, active = well fitted activation curve with a large enough effect; inconclusive = small, poorly fitted or top-dose-only effect, or another doubt; inactive = no such curve, though single readings can be large or run the other way. The list shows a part of the results.
# Test: Primary qHTS for Identification of Small Molecule Activators of Huntingtin-Antisense Promoter Activity; note: nearly all actives have a fitted effect of over 55% in size
# Conditions: HEK293 HTT-AS promoter firefly luciferase reporter (activity 0% = vehicle and -100% = no light), 24 h; series mostly up to 57.5 µM; activity change, positive = activation: at the top concentration
# Summary of the method: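 Firefly luciferase readout (Dual-Glo, 10 min RT) after 24 h, 37 °C compound exposure (final up to 57.5 uM) of HEK293 reporter cells cultured 24 h beforehand; PTC124 at 50 uM final as control inhibitor; activity scaled vehicle 0%, zero RLU -100%.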
row,SMILES,"activity change, positive = activation"
1,COc1ccc(OC)c(CNC(=O)NCc2noc3ccc(C)cc23)c1,inactive: -11.9%
2,CCN1C(=O)c2ccccc2S(=O)(=O)c2ccc(C(=O)NCc3ccccc3OC)cc21,inactive: -21.8%
3,CC(C)c1ccc(NC(=O)c2cc3c(=O)[nH]c4ccccc4c3n2C)cc1,inactive: -9.74%
4,O=C(CSc1cn(CC(=O)N2CCCCC2)c2ccccc12)NCc1ccccc1Cl,inactive: -22.6%
5,Cc1ccc(-n2nc(C)c3c(C(=O)NCCc4ccc(S(N)(=O)=O)cc4)cc(C)nc32)cc1,inactive: -16.9%
6,O=C(CN1C(=O)c2cccnc2Sc2ccccc21)Nc1cc(F)ccc1F,inactive: -10.2%
7,CCC1CN(C(=O)N2CCC(C(=O)NCc3cccc(F)c3)CC2)c2cc(C)ccc2O1 (stereo not given),inactive: -39.1%
8,COc1ccccc1NS(=O)(=O)c1cn(C)c(C)n1,inactive: -17.5%
9,COc1ccc(N2CC(NC(=O)COc3cccc(C)c3)CC2=O)cc1OC (stereo not given),inactive: -18%
10,Cc1ccc(C)c(N2CCN(C(=O)Cn3nc(C)c4sc5ccccc5c4c3=O)CC2)c1,inactive: -9.36%
11,COc1ccccc1N(CC(=O)Nc1ccccc1C(F)(F)F)S(=O)(=O)c1ccc(C)cc1,inactive: -26.7%
12,Cc1c(C(C)C)c(=O)n(-c2ccccc2)n1C,inactive: -5.45%
13,CCC(O)c1nc2ccccc2n1Cc1cc(C)ccc1C (stereo not given),inactive: -14%
14,Cc1oc2ccc(O)c(CN3CCCCCC3)c2c1C(=O)Nc1cccc(C(F)(F)F)c1,inactive: -50.8%
15,CCOc1ccc(NC(=O)CSc2nc3ccsc3c(=O)n2CCC(C)C)cc1,inactive: -6.59%
16,Cc1ccc(NC(=O)C2CCN(S(=O)(=O)c3ccc4c(c3)CCCC(=O)N4)CC2)cc1N(C)C,inactive: -33.4%
17,COc1ccc(OC)c(NC(=O)C2CCN(S(=O)(=O)c3ccc4c(c3)CC(C)N4C(C)=O)CC2)c1 (stereo not given),inactive: -26.2%
18,COc1ccc(OC)c(NC(=O)C(C)n2c(=O)c(-c3ccccc3NC(C)=O)nc3ccccc32)c1 (stereo not given),inactive: -27.4%
19,O=C(CC1Sc2ccccc2NC1=O)Nc1cccc(C(F)(F)F)c1 (stereo not given),inactive: -27.2%
20,COc1ccc(-c2nc(CSCC(=O)NCCC(C)C)c(C)o2)cc1OC,inactive: -17.1%
21,CCN(CC)c1ccc(C2C(C(N)=O)=C(C)Nc3nc(SCc4ccccc4Cl)nn32)cc1 (stereo not given),inactive: -61%
22,CCOC(=O)c1ccc(N=C2SC(C(=O)Nc3ccccc3)CC(=O)N2C)cc1 (stereo not given),inactive: -25.3%
23,Cc1ccc(NC(=O)c2ccc(C)c(S(=O)(=O)N3CCCCCC3)c2)cc1,inactive: -18.9%
24,COc1ccc(CNC(=O)C2(c3cccs3)CCOCC2)cc1,inactive: -9.87%

row,SMILES,"activity change, positive = activation"
1,O=C(CCCCCCC(=O)Nc1cccnc1)NO,inactive: -86.9%
2,CCOC(=O)C1=C(CN2CCN(c3ccc(C)cc3C)CC2)NC(=O)NC1c1ccc(OC)cc1 (stereo not given),inactive: -37.1%
3,Cc1ccccc1-c1nc(CN2CCC(C(=O)NC(C)C)CC2)c(C)o1,inactive: -0.788%
4,CCCCc1nn2c(=O)cc(COC(=O)CNC(=O)COc3ccc(C)cc3)nc2s1,inactive: -14.4%
5,CCOc1ccc(NC(=O)c2c(NCc3cccs3)sc3c2CCC(C)C3)cc1 (stereo not given),inactive: -13.1%
6,CCCCN(C)CCCNC(=O)c1cn(CC)c2ccc(S(=O)(=O)N3CCc4ccccc4C3)cc2c1=O,inactive: -3.17%
7,COc1ccccc1CNC(=O)c1cc(S(=O)(=O)N2CCCC(C)C2)cn1C (stereo not given),inactive: -23%
8,Cc1ccc2oc(-c3ccc(NC(=O)c4oc5ccc(Cl)cc5c4C)cc3)nc2c1,inactive: 2.56%
9,Cc1ccc(-n2nc(C)c3c(C(F)(F)F)cc(-c4cccnc4)nc32)cc1C,inactive: -12.1%
10,Cc1cccc(NC(=O)Cn2c(SCC(=O)NCc3ccccc3)nc3ccccc32)c1C,inactive: -20.6%
11,O=C(c1cnn(-c2ccc(F)cc2)c1-n1cccc1)N1CCN(c2ccccc2)CC1,inactive: -12.7%
12,CC(C)OCCCn1c(SCc2ccccc2Cl)nc2c(sc3ccccc32)c1=O,inactive: 18.6%
13,CCOc1ccc(NC(=O)CSc2cn(CC(=O)N3CCOCC3)c3ccccc23)cc1,inactive: 5.71%
14,CCC1CN(C(=O)N2CCC(C(=O)NCCC3=CCCCC3)CC2)c2ccccc2O1 (stereo not given),inactive: 5.38%
15,CCC(Cc1ccccc1)NC(=O)c1cccc(Nc2nc3ccccc3nc2-n2nc(C)cc2C)c1 (stereo not given),inactive: 12.3%
16,CCC1CCCCN1C(=O)Cn1c(=O)n(-c2ccc(Cl)c(Cl)c2)c(=O)c2c(C)c(C(=O)N(C)C)sc21 (stereo not given),inactive: -13.3%
17,COc1ccc(CCNC(=O)c2cc(=O)[nH]c3ccc(S(=O)(=O)N4CCCCC4)cc23)cc1OC,inactive: -10.2%
18,CCOc1ccc(NC(=O)C2CCC(CNS(=O)(=O)c3ccc4c(c3)CCCC(=O)N4)CC2)cc1 (stereo not given),inactive: -0.778%
19,Cc1c(Cl)cccc1Nc1ccccc1C(=O)O,inactive: -13.9%
20,CC(=O)Nc1c(C)nn(-c2ccccc2)c1N1CCC(C(=O)NCc2cccc(F)c2)CC1,inactive: -2.23%
21,CCN(c1cc(C)cc(C)c1)S(=O)(=O)c1nnc(NC(=O)c2ccccc2C)s1,inactive: -40.6%
22,Cc1ccc(N(CC(=O)N2CCN(c3cccc(C)c3C)CC2)S(=O)(=O)c2c(C)nn(C)c2C)cc1,inactive: -33.5%
23,CCOC(=O)c1cc2c(=O)n3ccccc3nc2n(C(C)C)c1=NC(=O)c1c(-c2c(F)cccc2Cl)noc1C,inactive: -37.8%
24,CCc1cccc(C)c1NC(=O)c1cc(S(=O)(=O)N2CCN(c3ccccc3)CC2)ccc1F,inactive: -25.2%

row,SMILES,"activity change, positive = activation"
1,COc1ccc(OC)c(CNc2ncnc3onc(C)c23)c1,inactive: -29.9%
2,Cc1cccc(CCNC(=O)CCc2c(C)nc3c(c(C)nn3-c3ccccc3)c2C)c1,inactive: -35.2%
3,COc1ccc2c(c1)CC(C(=O)Nc1cc(OC)c(OC)c(OC)c1)CO2 (stereo not given),inactive: -17.3%
4,CN(C)c1ccc(C(=O)NCc2ccc3c(c2)CCN3C(=O)c2ccc(Cl)cc2)cc1,inactive: -14%
5,COc1ccc(Cl)cc1NC(=O)CCn1nc(C)cc1C,inactive: -1.8%
6,CN1C(=O)c2ccccc2Sc2ccc(NC(=O)N3CCN(c4cccc(Cl)c4)CC3)cc21,inactive: -59.5%
7,Clc1ccc(CNc2ncnc3onc(-c4ccc(Cl)cc4)c23)cc1,inactive: -25.2%
8,COc1ccc(C(=O)NCc2ccc3c(c2)CCN3C(=O)c2ccc(Cl)cc2)c(OC)c1,inactive: -2.92%
9,COc1cc(OC)cc(C(=O)Nc2cccc(-c3cn4ccsc4n3)c2)c1,inactive: -3.37%
10,Cc1ccc(NC(=O)CSc2nccn2-c2ccccc2)cc1,inactive: 21.3%
11,O=C(COc1ccccc1Cl)Nc1ccc2nc(SCC(=O)N3CCOCC3)sc2c1,inactive: -41.8%
12,O=S(=O)(c1ccc2nc(Nc3ccc(Br)cc3F)ccc2c1)N1CCCCC1,inactive: -22%
13,CCSc1nc2sc3c(c2c(=O)n1-c1ccc(C)c(Cl)c1)CCN(C(C)=O)C3,inactive: -24.3%
14,Cc1ccccc1Cn1cc(S(=O)(=O)c2ccc(F)cc2)c(=O)c2cc3c(cc21)OCO3,inactive: -7.58%
15,Cc1ccc(NC(=O)Cn2c(=O)n(CCCCC(=O)NCCc3ccccc3)c(=O)c3ccccc32)cc1,inactive: -10.1%
16,Cc1cc(=O)n(Cc2ccc(Br)cc2F)c2c1c(C)nn2-c1ccccc1,inactive: -0.424%
17,O=C(CCNS(=O)(=O)c1ccc2c(c1)CCCC(=O)N2)NCc1ccc(Cl)cc1,inactive: -15.2%
18,Cc1cc(Cl)ccc1OCCSc1nnc(-c2cccs2)o1,inactive: -12.6%
19,COc1cc(F)c(C(C)C)cc1-c1ccc(C(F)(F)F)cc1CN1C(=O)O[C@H](c2cc(C(F)(F)F)cc(C(F)(F)F)c2)[C@@H]1C,inactive: -20.2%
20,COC(=O)c1ccc2c(c1)N(CC(=O)Nc1ccc(C)cc1Cl)C(=O)c1ccccc1S2,inactive: -3.07%
21,COc1ccc(C)cc1NC(=O)CN(C)S(=O)(=O)c1ccc2[nH]c(=O)oc2c1,inactive: -12.6%
22,CCc1ccc(-c2[nH]nc3nc(-c4cc(OC)ccc4OC)cc(C(=O)O)c23)cc1,inactive: -11.3%
23,COC(=O)c1sccc1S(=O)(=O)N(CC(=O)Nc1cc(F)ccc1F)c1ccc(C)c(C)c1,inactive: -7.58%
24,Cn1nc(C(=O)NCc2ccccc2Cl)c2c1-c1ccccc1SC2,inactive: 4.91%

row,SMILES,"activity change, positive = activation"
1,CCN(CC)c1nn2c(=O)c(C(=O)NCc3ccccc3Br)cnc2s1,inactive: -14.9%
2,CCOc1ccc(NC(=O)N2CCN(C(=O)c3nsc4ccccc34)CC2)cc1,inactive: -14.5%
3,O=C(NCCc1ccc(Cl)cc1)c1cc2c(s1)-c1ccccc1OC2,inactive: -22.4%
4,Cc1cccc(NC(=O)c2ccc(Cn3nc(N4CCN(c5ccccc5)CC4)ccc3=O)o2)c1C,inactive: -42.3%
5,COc1ccc(CCNC(=O)c2ccc3c(c2)CCN3S(=O)(=O)c2ccc(C)cc2)cc1OC,inactive: -35.5%
6,COc1ccc(-c2cc(C(F)(F)F)nc(SCC(=O)N(C)Cc3ccccc3)n2)cc1,inactive: -36.8%
7,CC(=O)N1CCc2c(sc(NC(=O)CSc3ccc(F)cc3)c2-c2nc3ccccc3s2)C1,inactive: -47.4%
8,Cc1ccc(Cn2c(CO)cnc2SCC(=O)Nc2cccc(F)c2)cc1,inactive: -18%
9,COc1ccc(-c2noc(-c3ccc(NCCc4ccccc4)c([N+](=O)[O-])c3)n2)cc1,inactive: 0.466%
10,O=C(Cn1cc(S(=O)(=O)Cc2ccccc2Cl)c2ccccc21)Nc1ccc(F)cc1F,inactive: -23.7%
11,CCOc1ccc(CNC(=O)c2ccc3c(c2)N(Cc2ccccc2)CCS3)cc1,inactive: -27.3%
12,CCOc1ccc(S(=O)(=O)N2CCC(n3c(C)nc4cccnc43)CC2)cc1,inactive: -24.5%
13,COC(=O)c1ccc2c(c1)N(Cc1cc(C)ccc1C)C(=O)c1ccccc1S2(=O)=O,inactive: -33.7%
14,O=C(Cn1ncc2c(Cl)cccc21)NCc1cccc(F)c1,inactive: -1.02%
15,CCn1c(C)c(C)c2cc(C(=O)NCCc3cc(OC)ccc3OC)ccc21,inactive: -18.5%
16,Cc1oc2ncn(CC(C)C)c(=O)c2c1C(=O)NCCCN(C)Cc1ccccc1,inactive: 0.946%
17,O=C(Nc1cccc(C(F)(F)F)c1)C1CCCN(S(=O)(=O)c2cccc3nonc23)C1 (stereo not given),inactive: -17%
18,Cc1oc2c(C)c3oc(=O)c(CCC(=O)N4CCCCC4)c(C)c3cc2c1C,inactive: -19.5%
19,Cc1cc2oc(C(=O)Nc3ccc(S(=O)(=O)N(C)c4ccccc4)cc3)cc(=O)c2cc1C,inactive: 14.9%
20,COc1cc(-c2nnc(SCCOc3ccccc3)o2)cc(OC)c1OC,inactive: -6.34%
21,CCOC(=O)Cn1c(=O)oc2cc(S(=O)(=O)Nc3ccccc3F)ccc21,inactive: -18.2%
22,CCOC(=O)c1c(SCC(=O)Nc2cccc(C)c2C)nc(=O)[nH]c1C,inactive: -12.2%
23,Cc1c(Cl)cccc1NC(=O)Cn1c(=O)n(Cc2ccco2)c(=O)c2oc3ccccc3c21,inactive: -3.82%
